Values marked as one replicate rest on one cluster of the flow cell; about a third of the high ones do not repeat.
test system: ATP; assay: switch fluorescence ratio, 500 uM ATP over buffer (Cy3 cluster intensity, sum of 5 cycles each) (fold (ratio)); higher = stronger signal-on switching upon ATP binding; sequences stand for … in TCGTCGGCAGCGTCAGATGTGTATAAGAGACAGTTTTTTTTTTTTTTTTTTTTTTTTT…TC; settings: aptamer strand: ATP DNA aptamer (quencher-CACCTGGGGGAGTATTGCGGAGGAAGG + anchor), 100 nM annealed; ATP concentration: 500 uM; one replicate
Procedure, shortened: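 Switching-strand clusters labelled with Cy3 on a modified Illumina MiSeq flow-cell were annealed to 100 nM quencher-labelled ATP aptamer, imaged in selection buffer, and re-imaged after 15 min with 500 uM ATP at 22 °C. This was done over five cycles with NaOH stripping and re-annealing in between. The fluorescence ratio is summed target-cycle over summed buffer-cycle Cy3 intensity per cluster, averaged per switch-domain sequence, excluding clusters outside 100-1000 RFU.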
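Further: ATP exposure 15 min at 22 °C before imaging.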

Sequence | switch fluorescence ratio
CCGGTTGGTC | 1.02
CCGGTTTTCA | 1.07
CCGTAAAGAT | 1.15
CCGTACCTCT | 1.09
CCGTACTTGG | 1.01
CCGTAGCTAT | 2.31
CCGTATCTGC | 0.999
CCGTATTCTT | 1.03
CCGTCAGGAG | 1.01
CCGTCTTATG | 0.948
CCGTGAATTT | 1.15
CCGTGACGGG | 1.02
CCGTGAGATG | 1.02
CCGTGCAGCC | 2.86
CCGTGGGGGC | 1.28
CCGTGTCTAG | 1.01
CCGTGTTAAC | 1.23
CCGTTAAGCT | 1.69
CCGTTACGGG | 0.999
CCGTTCCACA | 1.11
CCGTTCTGTG | 0.999
CCGTTGTTTC | 1.14
CCGTTTCAGC | 0.979
CCTAAAGTCA | 1
CCTAACAAAA | 1.04
CCTAACGAGT | 1.02

Sequence | switch fluorescence ratio
CCTAACTGGG | 0.984
CCTAAGACGC | 1.08
CCTAAGGTAC | 1.96
CCTAAGGTGC | 2.38
CCTAATCGAG | 1.04
CCTACGATTC | 5.48
CCTACTAAAG | 1.05
CCTAGAGAGC | 1
CCTAGATTGT | 1.01
CCTAGCGCTG | 1.44
CCTAGGATGA | 1.02
CCTAGGATTT | 1.03
CCTAGGCTGG | 1.1
CCTAGGTTAG | 1.05
CCTAGTCACC | 1.04
CCTAGTCGTG | 1.04
CCTAGTTTAT | 0.964
CCTATATCGC | 1.12
CCTATCCATA | 1.11
CCTATGATTA | 1.02
CCTCAAGCT | 5.18
CCTCAATAGG | 1.53
CCTCACGCCT | 3.53
CCTCACTTTG | 0.992
CCTCATGGGA | 1.06
CCTCATTAAG | 2.7

Sequence | switch fluorescence ratio
CCTCCAAGGG | 2.69
CCTCCAGGTA | 4.03
CCTCCATCT | 1.63
CCTCCCTTGA | 3.5
CCTCGACCG | 1.03
CCTCGACTTT | 1.06
CCTCGATCGT | 1.03
CCTCGGATGT | 1.19
CCTCGGGGTT | 1.15
CCTCGTCCGT | 1.27
CCTCGTCGCG | 1.03
CCTCGTGCAT | 4.34
CCTCTATCT | 1.1
CCTCTATGTT | 1.09
CCTCTCGGTT | 1.56
CCTCTCTGG | 1.07
CCTCTGAATT | 3.15
CCTCTTACTG | 1.1
CCTCTTATTT | 1.04
CCTCTTGGCC | 1.07
CCTCTTTTGA | 1.09
CCTGAAATCG | 1.08
CCTGAAATGA | 1.07
CCTGACCGTG | 1.01
CCTGACGGAA | 1.93

From the supplement of paper PMC10126150
